This passage reports stoichiometry N results from publication PMC12454647.

What is called stoichiometry N is the number of molecules, sites or subunits per partner or assembly.

This assay has as its target T1, AdhE from Escherichia coli K12 (Escherichia coli K12), P0A9Q7.
T1 chain: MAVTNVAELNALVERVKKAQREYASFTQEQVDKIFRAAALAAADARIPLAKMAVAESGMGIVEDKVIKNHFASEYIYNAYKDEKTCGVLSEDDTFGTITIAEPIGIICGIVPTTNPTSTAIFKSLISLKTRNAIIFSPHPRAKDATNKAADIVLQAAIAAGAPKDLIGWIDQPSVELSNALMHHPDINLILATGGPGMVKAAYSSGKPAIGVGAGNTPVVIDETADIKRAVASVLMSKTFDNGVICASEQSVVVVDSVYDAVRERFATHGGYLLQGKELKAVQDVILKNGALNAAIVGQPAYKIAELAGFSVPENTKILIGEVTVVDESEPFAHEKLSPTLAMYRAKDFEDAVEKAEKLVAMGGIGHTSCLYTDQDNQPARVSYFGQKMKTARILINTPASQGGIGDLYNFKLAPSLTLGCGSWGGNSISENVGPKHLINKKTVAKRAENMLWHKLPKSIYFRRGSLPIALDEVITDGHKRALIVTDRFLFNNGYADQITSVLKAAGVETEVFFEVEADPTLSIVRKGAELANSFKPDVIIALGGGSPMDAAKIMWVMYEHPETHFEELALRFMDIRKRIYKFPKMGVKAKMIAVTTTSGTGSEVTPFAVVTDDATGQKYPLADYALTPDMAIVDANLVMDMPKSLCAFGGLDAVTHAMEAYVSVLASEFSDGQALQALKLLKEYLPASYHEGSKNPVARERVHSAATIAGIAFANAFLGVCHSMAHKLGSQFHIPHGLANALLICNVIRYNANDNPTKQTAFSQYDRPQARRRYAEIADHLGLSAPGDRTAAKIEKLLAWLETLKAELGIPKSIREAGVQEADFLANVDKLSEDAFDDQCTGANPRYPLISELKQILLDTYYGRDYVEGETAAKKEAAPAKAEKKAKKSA
Briefly: native gel or EMSA; blue native PAGE, 3-14% polyacrylamide gradient, 150 V for ~75 minutes; purified AdhE 5 or 10 ug, BdhE 1 or 2 ug. The conditions noted are these: remark: other sources report otherwise. For orientation: A gel shift assay detects complexes by their altered migration in electrophoresis.

B1: AdhE from Escherichia coli K12, P0A9Q7 1-891 (enzyme)
chain: T1 chain
In the case of B1, the stoichiometry N was found to be 2.
